{"source": "patent US7488491B2", "about": "“Use of glycosylceramides as adjuvants for vaccines against infections and cancer” (New York University, priority 2001, dated 2009)", "key": {"[1]": {"test_system": "p18-specific CD8+ T cells (p18 protein of HIV)", "experiment": "ELISPOT assay of HIV p18-specific CD8+ T cells from immunized mice", "conditions": "BALB/c; SIN(p18) s.c. with α-GalCer"}, "[2]": {"test_system": "P. yoelii sporozoites", "experiment": "Parasite rRNA in the liver after live sporozoite challenge of immunized mice (real-time RT-PCR)", "conditions": "BALB/c mice; 0.5, 1, 2 μg α-GalCer with 1×10^4 γ-spz i.v."}, "[3]": {"test_system": "CS-specific CD4+ and CD8+ T cells (P. yoelii CS protein)", "experiment": "ELISPOT assay of CS-specific CD4+ and CD8+ T cells from immunized mice"}}, "data": [{"smiles": "CCCCCCCCCCCCCCCCCCCCCCCCCC(=O)N[C@@H](CO[C@H]1O[C@H](CO)[C@H](O)[C@H](O)[C@H]1O)[C@H](O)[C@H](O)CCCCCCCCCCCCCC", "note": "[α-GalCer, (2S,3S,4R)-1—O-(α-D-galactopyranosyl)-2-(N-hexacosanoylamino)-1,3,4-octadecanetriol]", "values": [{"measurement": "increase in number of p18-specific IFN-γ-secreting CD8+ T cells induced by SIN(p18)", "setting": "[1]", "value": 4, "unit": "fold"}, {"measurement": "level of protective immunity (% inhibition of the liver stage development) elicited by γ-spz", "setting": "[2]", "value": "significantly enhanced, in a dose-dependent manner"}, {"measurement": "duration of the CS-specific CD8+ T cell response", "setting": "[3]; BALB/c, 1×10^5 γ-spz with or without α-GalCer, two to six weeks", "value": "prolonged the duration"}, {"measurement": "number of IFN-γ-secreting CS-specific CD4+ T cells", "setting": "[3]; BALB/c, 1×10^5 γ-spz with α-GalCer, two weeks", "value": "significantly increased"}, {"measurement": "number of CS-specific CD8+ T cells secreting IFN-γ, SIN(Mal)", "setting": "[3]; BALB/c, SIN(Mal) with α-GalCer", "value": "increases"}, {"measurement": "CS-specific T cell responses, α-GalCer two days before or two days after peptide immunization", "setting": "[3]; BALB/c, peptide immunization", "value": "significantly enhance"}, {"measurement": "number of CS-specific CD4+ and CD8+ T cells secreting IFN-γ, peptide-immunized mice, vs no α-GalCer", "setting": "[3]; BALB/c, s.c. 10 mg synthetic CD8+ or CD4+ epitope peptide, α-GalCer same time, lymph node cells, ten days", "value": "significantly higher"}, {"measurement": "number of CS-specific CD4+ and CD8+ T cells secreting IFN-γ vs virus alone, AdPyCS", "setting": "[3]; BALB/c, suboptimal dose AdPyCS s.c. with α-GalCer, splenocytes", "value": "more than 10 fold"}, {"measurement": "number of CS-specific CD8+ T cells in CD1d-deficient mice vs untreated", "setting": "[3]; CD1d-deficient mice, γ-spz with α-GalCer", "value": "failed to increase"}, {"measurement": "number of CS-specific IFN-γ-secreting CD8+ and CD4+ T cells in IFN-γ receptor-deficient mice", "setting": "[3]; IFN-γR-/- mice, γ-spz with α-GalCer, ten days", "value": "failed to augment"}, {"measurement": "level of CS-specific T cell responses at six weeks after γ-spz immunization vs non-treated mice", "setting": "[3]; α-GalCer-treated mice", "value": "remained much higher"}, {"measurement": "enhancement of T cell responses, α-GalCer two days prior to or two days after γ-spz", "setting": "[3]; γ-spz immunization", "value": "not observed"}, {"measurement": "increase in number of IFN-γ-secreting CS-specific CD4+ T cells vs γ-spz alone", "setting": "[3]; γ-spz immunization with α-GalCer", "value": "approximately 5 fold"}, {"measurement": "numbers of CS-specific CD4+ or CD8+ T cells secreting IL-4", "setting": "[3]; γ-spz with or without α-GalCer", "value": "No difference"}]}]}
